Here are results for 3 molecules from patent CN117756933A (INST MILITARY MEDICINE ACADEMY MILITARY SCIENCES PLA, dated 2024).

First the molecules themselves.
B1: 重链抗体FW3-R1-Fc (Fc fusion)
heavy: EVQLVESGGGLVQPGGSLRLSCAASGFIFSDYGMSWVRQAPGKDLEWVSGISNLGSYTYYADSVKGRFTISRDNAKNTLSLQMNSLRAEDTALYYCTRGGTLGTMTYPKYAGQGTLVTISSAS[human IgG1 Fc with changes left out]
B2: 重链抗体FW3-R3-Fc (Fc fusion)
heavy: EVQLVESGGGLVQPGGSLRLSCAASGFIFSDYGMSWVRQAPGKDLEWVSGISNLGSYTYYADSVKGRFTISRDNAKNTLSLQMNSLRAEDTALYYCTRGGTLGTMTYPKYAGQGTLVTVSSAS[human IgG1 Fc with changes left out]
B3: 重链抗体FW3-Fc (Fc fusion)
heavy: EVQLVESGGGLVQPGGSLRLSCAASGFIFSDYGMSWVRQAPGKDLEWVSGISNLGSYTYYADSVKGRFTISRDNAKNTLSLQMNSLKSEDTALYYCTRGGTLGTMTYPKYAGQGTQVTISSAS[human IgG1 Fc with changes left out]

One may read the Kd as the equilibrium constant for the complex coming apart. A high value points to weaker binding.

For this test, the target named is 鼠疫菌F1重组蛋白 (Yersinia pestis).
Regarding B1, the Kd worked out at 3.42 nM.

Consider B2, for which the dissociation constant (Kd) amounted to 4.36 nM. B3: the equilibrium dissociation constant (Kd) is 4.43 nM.
